#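 Step 1: Grow cells in 96-well plates. Step 2: Expose to compound for 48 hours at 5 concentrations. Step 3: Interpolate endpoints linearly; if unreached, use highest concentration. Here, GI50 denotes the concentration required for 50% inhibition of growth.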 For part of its entries the source gives two or more results. This is not the full list of results. There may be further records. The tests behind the records often covered other concentration ranges, which the source does not state; some values may only mark the edge of a range.
# Tested on: MDA-MB-468 breast
# Test: NCI anticancer screen, dose series, 48 h
smiles,measurement,value
O=NN(CCCl)C(=O)NCCCl,GI50,> 500 µM [1 test] and 46.8 µM [mean of 2 tests]

# Source: PubChem BioAssay (NCI)
